Test results taken from PubChem BioAssay AID488969 (Vanderbilt High Throughput Screening Facility, 2010).
In all, about 110,000 compounds were measured (“z-score”: median about -0.1, highest 2% from about 2 on). The list shows a part of the results. Calls of active or inactive are those of the source.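 Rule for the calls: active = z-score in the third read window above 3 or below -3; inactive = the rest.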

These compounds were tested against Metabotropic glutamate receptor 8 (Rattus norvegicus) (UniProt P70579) (assay: mGluR8 Gi/Go-coupled signaling modulation – cell-based, rat, thallium flux, HTS, primary screen (AID 488969)). Details: HEK293 rat mGluR8, GIRK (G protein-gated inwardly rectifying potassium channel) thallium flux, FluoZin2; at 10 µM; stronger effect = higher value; submaximal glutamate (EC20) added with thallium.
UniProt P70579, sequence (P70579 whole entry, looked up): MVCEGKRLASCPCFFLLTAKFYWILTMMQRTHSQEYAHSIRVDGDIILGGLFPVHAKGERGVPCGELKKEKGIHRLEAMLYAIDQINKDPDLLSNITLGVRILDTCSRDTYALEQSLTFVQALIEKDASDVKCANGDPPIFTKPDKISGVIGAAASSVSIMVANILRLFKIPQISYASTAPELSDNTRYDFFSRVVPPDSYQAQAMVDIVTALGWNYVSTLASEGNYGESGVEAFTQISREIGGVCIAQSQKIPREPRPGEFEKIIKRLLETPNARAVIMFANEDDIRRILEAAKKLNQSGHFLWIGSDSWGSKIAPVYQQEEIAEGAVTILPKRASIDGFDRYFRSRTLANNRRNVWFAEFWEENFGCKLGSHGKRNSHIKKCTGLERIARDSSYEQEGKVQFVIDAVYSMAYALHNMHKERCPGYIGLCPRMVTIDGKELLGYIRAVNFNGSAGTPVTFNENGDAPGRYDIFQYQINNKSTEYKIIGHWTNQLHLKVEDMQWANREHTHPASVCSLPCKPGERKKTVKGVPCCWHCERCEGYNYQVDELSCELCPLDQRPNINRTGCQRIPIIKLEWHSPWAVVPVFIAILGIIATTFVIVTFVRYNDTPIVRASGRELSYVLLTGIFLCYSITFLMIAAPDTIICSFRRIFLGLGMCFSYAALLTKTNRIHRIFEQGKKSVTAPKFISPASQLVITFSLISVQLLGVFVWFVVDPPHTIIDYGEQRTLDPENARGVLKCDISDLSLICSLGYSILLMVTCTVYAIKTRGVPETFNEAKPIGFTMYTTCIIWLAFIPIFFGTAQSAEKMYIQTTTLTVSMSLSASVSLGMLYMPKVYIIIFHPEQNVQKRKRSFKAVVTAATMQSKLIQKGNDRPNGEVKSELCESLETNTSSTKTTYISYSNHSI
For `O=C(COc1ncnc2c(Cl)cc(Cl)cc12)NC1CCCCCC1`, the z-score was -0.0836.
`CCN(CC)CCn1c2ccccc2c2nc(C)sc21` was tested, and the z-score was 0.43.
In the case of `Cc1ccc(C)c(NC(=O)CSc2nnc(-c3n[nH]c4ccccc34)o2)c1`, the z-score is reported as -0.0139.
`Cc1nc2ccccc2c(=O)n1N` gave a z-score of 0.0349.
Compound `CC1=C(C(=O)OCc2ccc3c(c2)OCO3)C(c2ccc(Cl)cc2)NC(=O)N1` (centres undefined) has a z-score of 0.119.
In the case of `CCCN1/C(=C2/SC(=S)N(CC)C2=O)C=Cc2ccccc21`, the z-score is reported as 1.17.
Work on `O=C(CSc1nnc(NC(=O)C2CC2)s1)NCc1ccco1` yielded a z-score of 0.00676.
In the case of `Cc1ccc(S(=O)(=O)NCc2c(-c3ccccc3)c3cc(Cl)ccc3[nH]c2=O)cc1`, the z-score is reported as -0.178.
Compound `CCc1c(C)nc(SCC(N)=O)c(C#N)c1C` has a z-score of -0.401.
With `Cc1cc(Br)c(NC(=O)COC(=O)CSc2nnc(-c3ccc(Cl)cc3)o2)c(Br)c1` the z-score was 1.18.
`Cc1ccc(CCNC(=O)C2CCC(CNc3c(N4CCCC4)c(=O)c3=O)CC2)cc1` (centres undefined) showed a z-score of -0.00435.
Work on `COc1ccc(N(CC(=O)Nc2cccc(C)c2C)S(=O)(=O)c2c(C)n[nH]c2C)cc1` yielded a z-score of -0.123.
`CN1/C(=C\C(=O)c2cccc(S(=O)(=O)N3CCCCC3)c2)C(C)(C)c2ccccc21` gave a z-score of -0.265.
Compound `CCN(CC)c1ccc(NC(=O)COc2ccc(C)cc2)cc1` has a z-score of 0.0573.
Compound `Cc1ccc2cc(CN(CC3CCCO3)S(=O)(=O)c3ccc4c(c3)OCCO4)c(=O)[nH]c2c1C` (centres undefined) has a z-score of -0.54.
Work on `O=C(CSCc1ccccc1)N1CCN(C(=O)c2ccco2)CC1` yielded a z-score of -0.152.
`CC(C)C(NC(=O)C1CCCCC1)C(=O)NCc1ccccn1` (centres undefined) gave a z-score of 0.22.
`COc1ccc([N+](=O)[O-])cc1NC(=O)C(C)c1ccccc1` (centres undefined) was tested, and the z-score was -0.84.
`CCSc1nc2ccccc2n1C(=O)c1ccc(S(=O)(=O)N2CCCCC2)cc1` gave a z-score of 0.0198.
Compound `O=C1C(Cl)=C(N2CCN(Cc3ccccc3)CC2)C(=O)N1Cc1ccccc1` has a z-score of -0.226.
With `COC(=O)c1ccc(COC(=O)c2ccc(S(=O)(=O)N3CCC(C)CC3)cc2)o1` the z-score was 0.0439.
Compound `COc1ccc(C(=O)N2CC3(CC(c4ccc(Cl)cc4)=NO3)C[C@H]2C(=O)NCC(N)=O)cc1` (some centres undefined) has a z-score of -0.0916.
`O=C(COC(=O)c1n[nH]c(=O)c2ccccc12)c1ccccc1` gave a z-score of -0.19.
Compound `COc1ccc(CCN(C)CCN2C(=O)c3ccccc3C2=O)cc1OC` has a z-score of 0.448.
Compound `O=C(/C=C/c1ccc([N+](=O)[O-])cc1)NCCSCc1ccco1` has a z-score of -0.283.
`CCN(CC)S(=O)(=O)c1cc(-c2nn(C)c(=O)c3ccccc23)ccc1C` gave a z-score of -0.365.
`COc1cccc(CNc2nc3nc4c(c(=O)n3[nH]2)CCC4)c1` showed a z-score of -0.379.
Work on `O=C(Nc1ccccc1Cl)c1ccc(S(=O)(=O)N2CCOCC2)cc1` yielded a z-score of -0.252.
For `c1ccc(-c2nc3ccccn3c2NCc2ccc3c(c2)OCO3)cc1`, the z-score was -1.08.
In the case of `CCn1c(=O)n(CC)c2cc([N+](=O)[O-])ccc21`, the z-score is reported as -0.0668.
`COc1ccccc1C(=O)Nc1cccc(SC)c1` was tested, and the z-score was -0.103.
`OCCN1CCN(CC(O)COCc2ccc3c(c2)OCO3)CC1` (centres undefined) gave a z-score of 0.118.
For `COC(=O)c1ccc(C)c(NS(=O)(=O)c2ccc(OC)cc2)c1`, the z-score was -0.353.
For `O=CN1CC(=O)N(c2ccccc2)c2c([nH]c3ccccc23)C1`, the z-score was 0.383.
`O=C(CSCc1ccco1)Nc1cc(C(F)(F)F)ccc1N1CCOCC1` showed a z-score of -0.112.
Work on `CC(=O)Oc1ccc(NC(=O)C2CCCCC2)c(C(=O)O)c1` yielded a z-score of -0.326.
Compound `CCCC(=O)Nc1nc(-c2ccc(OC)cc2)cs1` has a z-score of 0.441.
In the case of `O=S(=O)(Nc1cccc2c1ccc1cccn12)c1cccs1`, the z-score is reported as -0.185.
In the case of `CCOC(=O)CCc1n[nH]c(=O)[nH]c1=O`, the z-score is reported as -1.42.
`CCOC(=O)Cn1nc(C)n(-c2ccc(C(C)(C)C)cc2)c1=O` was tested, and the z-score was -0.122.
`COc1ccc(C(=O)Nc2ccccc2N2CCOCC2)cc1Br` showed a z-score of -1.44.
For `Cc1cc2c(c(=O)o1)C(C13C=CC(CC1)C3)C(C#N)=C(N)O2` (centres undefined), the z-score was 0.0723.
For `Cc1ccc2oc(-c3cccc(NC(=O)c4ccc(Br)o4)c3)nc2c1`, the z-score was -0.833.
`CS(=O)(=O)N(Cc1ccccc1)c1ccc(C(=O)NN=C2CCCCCC2)cc1` showed a z-score of 0.26.
For `O=P(CCCCCCCCCP(=O)(c1ccccc1)c1ccccc1)(c1ccccc1)c1ccccc1`, the z-score was active: -4.87.
`O=C(Nc1ccccc1C(=O)N1CCCCC1)c1cccc(S(=O)(=O)N2CCOCC2)c1` gave a z-score of 0.694.
With `O=C(Nc1ccc(F)cc1)N(Cc1nnc2n1CCCCC2)c1ccccc1` the z-score was -0.114.
Work on `OCCNCCOc1ccccc1F` yielded a z-score of -0.06.
Work on `COc1ccccc1CNS(=O)(=O)c1ccc(C)cc1` yielded a z-score of -0.383.
For `O=C(N1CCOCC1)N1CCC(c2nc(-c3ccc(S(=O)(=O)N4CCOCC4)cc3)no2)CC1`, the z-score was -0.193.
For `O=C(CC(Nc1ccccc1)c1ccc(F)cc1)c1ccccc1` (centres undefined), the z-score was -0.109.
`CCCOC(=O)c1ccc(NC(=O)Oc2ccccc2)cc1` gave a z-score of 0.454.
With `CCOC(=O)C1CCCN(C(=O)CC(c2ccccc2)c2ccccc2)C1` (centres undefined) the z-score was -0.309.
`Cc1c(NC(=O)COC(=O)C(c2ccc(Cl)cc2)C(C)C)c(=O)n(-c2ccccc2)n1C` (centres undefined) showed a z-score of -0.457.
Compound `Cc1csc2cc(-c3cccc([N+](=O)[O-])c3)c(-c3cccc([N+](=O)[O-])c3)c[n+]12` has a z-score of 0.524.
Compound `COc1ccc(-c2noc(CCCOc3ccccc3)n2)cc1OC` has a z-score of 0.0369.
For `COc1ccc(-n2c(Cn3nc(C(F)(F)F)cc3C)n[nH]c2=S)cc1`, the z-score was 0.507.
`COc1cccc2c(=O)n(CC(=O)Nc3ccc(F)cc3)ccc12` was tested, and the z-score was 0.283.
For `Cn1c2ccccc2c2cc(C(=O)NNS(=O)(=O)c3ccc(F)cc3)sc21`, the z-score was active: 5.09.
For `Cc1ccc(S(=O)(=O)N2CN(Cc3ccco3)c3nc4ccccc4nc32)cc1`, the z-score was -0.462.
For `COc1ccc(N2CCN(C(=O)C3=NNC(=O)CC3)CC2)cc1`, the z-score was -0.292.
`COc1ccc2nc(NC3=NC(c4ccccc4)CC(=O)N3)nc(C)c2c1` (centres undefined) gave a z-score of -0.201.
Work on `CN(C)CCCNC(=O)/C(=N\O)c1ccccc1` yielded a z-score of 0.1.
With `Cn1cccc1C(=O)NC(=O)COC(=O)c1ccc(O)cc1` the z-score was -0.111.
For `CCCOc1ccc(-c2nc(C#N)c(NCC3CCCO3)o2)cc1` (centres undefined), the z-score was -0.765.
For `Cc1c(CCO)c(=O)n(-c2ccccc2)n1S(=O)(=O)c1ccc(Cl)cc1`, the z-score was 0.251.
In the case of `CC(=O)C1=C(C)NC(SCC(=O)c2ccc(Cl)cc2)=C(C#N)C1c1ccco1` (centres undefined), the z-score is reported as -0.504.
Compound `O=[N+]([O-])c1cccc2ccc(/C=C/c3ccc(Cl)cc3)nc12` has a z-score of -0.242.
Compound `CC(C)C(=O)NNc1nc2ccccc2s1` has a z-score of 0.0619.
